Whole data set: some 18,000 sequences, median “TetR repression strength (sort-seq, GFP reporter)” near 0.23, cut for the highest 2% near 0.68. This is one part of the list.
Target: TetR (class B, Tn10) (UniProt P04483)
Test: TetR repression strength (sort-seq, GFP reporter) (relative to tetO2 = 1); higher = stronger repression
Conditions: E. coli
Outline: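 Escherichia coli SIG10-MAX cells carried a low-copy plasmid library in which eight operator positions were randomized between a constitutive promoter and sfGFP, and TetR was expressed constitutively. After 5 h of growth at 37 °C in LB with 50 µg/mL chloramphenicol, 10^6 cells were FACS-sorted into 13 fluorescence bins, and each bin was Illumina-sequenced. Repression strength was the top bin index plus one minus the read-weighted mean bin, divided by the value for the unaltered operator. Across three independent transformations, only library members with ≥30 reads in every replicate and a CV ≤0.5 were averaged.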

UniProt P04483, sequence (P04483 whole entry): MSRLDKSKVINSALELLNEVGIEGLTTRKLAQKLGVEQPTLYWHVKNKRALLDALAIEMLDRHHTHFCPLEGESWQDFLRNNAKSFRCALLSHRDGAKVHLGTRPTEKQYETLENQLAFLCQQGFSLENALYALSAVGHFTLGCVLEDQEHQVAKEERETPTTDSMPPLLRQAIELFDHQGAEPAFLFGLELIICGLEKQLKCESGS

With TCCCATTGAGTGGACGAGA as the sequence, how does the TetR repression strength read?
The TetR repression strength was 0.169.

TCCCCGCAAGTTGTGGAGA was tested. Which TetR repression strength did it give?
The TetR repression strength was 0.166.

With TCCCAAGAAGTTTTCGAGA as the sequence, how does the TetR repression strength read?
The TetR repression strength was 0.261.

For TCCCAATTAGTGTCGGAGA, which TetR repression strength is on record?
Its TetR repression strength is 0.0518.

TCCCTATTAGTCCGTGAGA was tested. Which TetR repression strength did it give?
The TetR repression strength was 0.399.

For TCCCTTGTAGTGCGGGAGA, which TetR repression strength is on record?
Its TetR repression strength is 0.132.

TCCCCTATAGTTTGCGAGA was tested. Which TetR repression strength did it give?
Its TetR repression strength is 0.0173.

TCCCCTTCAGTTCGCGAGA was tested. Which TetR repression strength did it give?
The TetR repression strength was 0.191.

How did the TetR repression strength turn out when TCCCAGCTAGTTTTTGAGA was run?
Its TetR repression strength is 0.603.

TCCCCGAGAGTCACGGAGA was tested. Which TetR repression strength did it give?
Its TetR repression strength is 0.12.

With TCCCTTGGAGTACGAGAGA as the sequence, how does the TetR repression strength read?
Its TetR repression strength is 0.295.

Which TetR repression strength does the source give for TCCCGAGTAGTGCGTGAGA here?
Its TetR repression strength is 0.0897.

How did the TetR repression strength turn out when TCCCGGATAGTTGGGGAGA was run?
Its TetR repression strength is 0.178.

Which TetR repression strength does the source give for TCCCTTTCAGTGAGGGAGA here?
The TetR repression strength was 0.221.

How did the TetR repression strength turn out when TCCCAATGAGTGGTCGAGA was run?
Its TetR repression strength is 0.163.

Which TetR repression strength does the source give for TCCCAAAGAGTGTTTGAGA here?
Its TetR repression strength is 0.108.

Which TetR repression strength does the source give for TCCCTGCTAGTGATCGAGA here?
Its TetR repression strength is 0.745.

TCCCCGACAGTGGGTGAGA was tested. Which TetR repression strength did it give?
The TetR repression strength was 0.152.

For TCCCCACTAGTGTGCGAGA, which TetR repression strength is on record?
The TetR repression strength was 0.218.

How did the TetR repression strength turn out when TCCCGCAGAGTTGTAGAGA was run?
Its TetR repression strength is 0.53.

Which TetR repression strength does the source give for TCCCCACCAGTTGTAGAGA here?
Its TetR repression strength is 0.265.

With TCCCCTCGAGTTAAGGAGA as the sequence, how does the TetR repression strength read?
Its TetR repression strength is 0.155.

For TCCCTTAGAGTGTCCGAGA, which TetR repression strength is on record?
The TetR repression strength was 0.339.

How did the TetR repression strength turn out when TCCCATGTAGTATGAGAGA was run?
Its TetR repression strength is 0.27.

Which TetR repression strength does the source give for TCCCCGATAGTTCGAGAGA here?
Its TetR repression strength is 0.104.

Which TetR repression strength does the source give for TCCCTTATAGTTTGAGAGA here?
Its TetR repression strength is 0.198.

TCCCCTTCAGTCAACGAGA was tested. Which TetR repression strength did it give?
Its TetR repression strength is 0.389.

How did the TetR repression strength turn out when TCCCAGCAAGTGTCAGAGA was run?
Its TetR repression strength is 0.205.

For TCCCCGGAAGTTGGGGAGA, which TetR repression strength is on record?
The TetR repression strength was 0.216.

With TCCCAACTAGTCATAGAGA as the sequence, how does the TetR repression strength read?
Its TetR repression strength is 0.397.

How did the TetR repression strength turn out when TCCCGGATAGTCGGCGAGA was run?
The TetR repression strength was 0.211.

With TCCCCCGGAGTGCTGGAGA as the sequence, how does the TetR repression strength read?
The TetR repression strength was 0.227.

TCCCGGATAGTCCTCGAGA was tested. Which TetR repression strength did it give?
The TetR repression strength was 0.415.

For TCCCTCTTAGTGGTGGAGA, which TetR repression strength is on record?
The TetR repression strength was 0.196.

With TCCCGTTCAGTTAAGGAGA as the sequence, how does the TetR repression strength read?
The TetR repression strength was 0.297.

How did the TetR repression strength turn out when TCCCAGTGAGTCTGTGAGA was run?
The TetR repression strength was 0.481.

For TCCCCAGGAGTACATGAGA, which TetR repression strength is on record?
Its TetR repression strength is 0.129.

With TCCCCATTAGTTGTGGAGA as the sequence, how does the TetR repression strength read?
The TetR repression strength was 0.151.

How did the TetR repression strength turn out when TCCCTTCGAGTGCGCGAGA was run?
The TetR repression strength was 0.281.

TCCCCCGAAGTAGTTGAGA was tested. Which TetR repression strength did it give?
The TetR repression strength was 0.102.

How did the TetR repression strength turn out when TCCCGGCGAGTGCTAGAGA was run?
Its TetR repression strength is 0.196.

For TCCCTGTTAGTATGGGAGA, which TetR repression strength is on record?
Its TetR repression strength is 0.179.

With TCCCGCCTAGTCAAGGAGA as the sequence, how does the TetR repression strength read?
Its TetR repression strength is 0.509.

How did the TetR repression strength turn out when TCCCTAGCAGTTCCTGAGA was run?
The TetR repression strength was 0.431.

How did the TetR repression strength turn out when TCCCGTCAAGTTCCGGAGA was run?
The TetR repression strength was 0.121.

With TCCCTTAAAGTTTGCGAGA as the sequence, how does the TetR repression strength read?
Its TetR repression strength is 0.622.

Which TetR repression strength does the source give for TCCCATTCAGTATAAGAGA here?
The TetR repression strength was 0.348.

Which TetR repression strength does the source give for TCCCTATAAGTCTCGGAGA here?
The TetR repression strength was 0.365.

How did the TetR repression strength turn out when TCCCCGATAGTTGCAGAGA was run?
Its TetR repression strength is 0.118.

For TCCCAGAAAGTTGAGGAGA, which TetR repression strength is on record?
The TetR repression strength was 0.29.

Which TetR repression strength does the source give for TCCCGGAAAGTGTTGGAGA here?
The TetR repression strength was 0.33.

For TCCCGCTGAGTGTCGGAGA, which TetR repression strength is on record?
Its TetR repression strength is 0.246.

How did the TetR repression strength turn out when TCCCCTAAAGTACAGGAGA was run?
Its TetR repression strength is 0.0737.

For TCCCAGGAAGTCGTTGAGA, which TetR repression strength is on record?
The TetR repression strength was 0.

TCCCGGTGAGTGGTTGAGA was tested. Which TetR repression strength did it give?
The TetR repression strength was 0.231.

TCCCATCCAGTGCCAGAGA was tested. Which TetR repression strength did it give?
Its TetR repression strength is 0.637.

For TCCCTTTCAGTTAGCGAGA, which TetR repression strength is on record?
The TetR repression strength was 0.614.

For TCCCTTAAAGTCTAAGAGA, which TetR repression strength is on record?
The TetR repression strength was 0.539.

With TCCCGGTTAGTGCGGGAGA as the sequence, how does the TetR repression strength read?
Its TetR repression strength is 0.245.

Which TetR repression strength does the source give for TCCCGGGGAGTGGAGGAGA here?
Its TetR repression strength is 0.31.

With TCCCTCGGAGTGGAAGAGA as the sequence, how does the TetR repression strength read?
Its TetR repression strength is 0.296.

TCCCCGGTAGTGGTAGAGA was tested. Which TetR repression strength did it give?
Its TetR repression strength is 0.118.

For TCCCTGCTAGTCCACGAGA, which TetR repression strength is on record?
Its TetR repression strength is 0.296.

For TCCCCAACAGTATATGAGA, which TetR repression strength is on record?
Its TetR repression strength is 0.434.

TCCCGCATAGTTTTCGAGA was tested. Which TetR repression strength did it give?
The TetR repression strength was 0.477.

TCCCTAACAGTTTGGGAGA was tested. Which TetR repression strength did it give?
The TetR repression strength was 0.244.

TCCCGACCAGTTGATGAGA was tested. Which TetR repression strength did it give?
The TetR repression strength was 0.401.

TCCCTGAGAGTTGGTGAGA was tested. Which TetR repression strength did it give?
The TetR repression strength was 0.164.

With TCCCCCATAGTTGGGGAGA as the sequence, how does the TetR repression strength read?
The TetR repression strength was 0.172.

With TCCCATTCAGTTATAGAGA as the sequence, how does the TetR repression strength read?
The TetR repression strength was 0.596.

Which TetR repression strength does the source give for TCCCCTCTAGTGGGCGAGA here?
The TetR repression strength was 0.318.

TCCCTAACAGTTGCGGAGA was tested. Which TetR repression strength did it give?
The TetR repression strength was 0.209.

How did the TetR repression strength turn out when TCCCTGGTAGTGGTGGAGA was run?
The TetR repression strength was 0.1.

For TCCCTATCAGTTTTCGAGA, which TetR repression strength is on record?
The TetR repression strength was 0.523.

For TCCCGGCTAGTTTCGGAGA, which TetR repression strength is on record?
Its TetR repression strength is 0.317.

TCCCATTTAGTAGGAGAGA was tested. Which TetR repression strength did it give?
Its TetR repression strength is 0.157.

TCCCAGGGAGTACGAGAGA was tested. Which TetR repression strength did it give?
Its TetR repression strength is 0.209.

TCCCGCGAAGTTAGCGAGA was tested. Which TetR repression strength did it give?
The TetR repression strength was 0.15.

With TCCCGATGAGTAGGCGAGA as the sequence, how does the TetR repression strength read?
Its TetR repression strength is 0.106.

TCCCCGTAAGTGTACGAGA was tested. Which TetR repression strength did it give?
Its TetR repression strength is 0.16.

TCCCAATTAGTGTTCGAGA was tested. Which TetR repression strength did it give?
Its TetR repression strength is 0.184.

For TCCCGGCGAGTTTCCGAGA, which TetR repression strength is on record?
Its TetR repression strength is 0.26.

TCCCTAGTAGTTCGGGAGA was tested. Which TetR repression strength did it give?
The TetR repression strength was 0.184.

How did the TetR repression strength turn out when TCCCGCGGAGTGTGGGAGA was run?
Its TetR repression strength is 0.299.

How did the TetR repression strength turn out when TCCCGTAGAGTGAGTGAGA was run?
The TetR repression strength was 0.271.

Which TetR repression strength does the source give for TCCCGGGGAGTACTCGAGA here?
The TetR repression strength was 0.206.

How did the TetR repression strength turn out when TCCCTTCGAGTTATAGAGA was run?
The TetR repression strength was 0.248.

How did the TetR repression strength turn out when TCCCATATAGTAGGTGAGA was run?
The TetR repression strength was 0.43.

With TCCCGTAAAGTAGAGGAGA as the sequence, how does the TetR repression strength read?
The TetR repression strength was 0.0749.

Which TetR repression strength does the source give for TCCCGCCGAGTAGGCGAGA here?
Its TetR repression strength is 0.34.

How did the TetR repression strength turn out when TCCCCAGGAGTGAGAGAGA was run?
Its TetR repression strength is 0.0419.

With TCCCGCTAAGTACGCGAGA as the sequence, how does the TetR repression strength read?
The TetR repression strength was 0.0193.

With TCCCCGGAAGTGGTGGAGA as the sequence, how does the TetR repression strength read?
Its TetR repression strength is 0.154.

With TCCCTGACAGTAGAGGAGA as the sequence, how does the TetR repression strength read?
The TetR repression strength was 0.109.

For TCCCACCGAGTTTTTGAGA, which TetR repression strength is on record?
The TetR repression strength was 0.46.

For TCCCAATGAGTTGATGAGA, which TetR repression strength is on record?
Its TetR repression strength is 0.101.

For TCCCCCTTAGTCTCAGAGA, which TetR repression strength is on record?
Its TetR repression strength is 0.385.

For TCCCGATGAGTGGAAGAGA, which TetR repression strength is on record?
Its TetR repression strength is 0.258.

How did the TetR repression strength turn out when TCCCCAACAGTTTCCGAGA was run?
Its TetR repression strength is 0.443.

For TCCCGGTGAGTTGGTGAGA, which TetR repression strength is on record?
The TetR repression strength was 0.391.

TCCCGCGTAGTATTAGAGA was tested. Which TetR repression strength did it give?
The TetR repression strength was 0.00942.

Which TetR repression strength does the source give for TCCCATGGAGTCTGTGAGA here?
Its TetR repression strength is 0.103.
